This note sets out measurements from the supplement of paper PMC10670038.

Structures are written as SMILES. Several values for one entry are separate records, joined by “and”; a condition that tells them apart may be missing. Identical values can stand only once. Counter-ions that a name gives are not always drawn. ± gives the standard deviation of the averaged measurements. The full ranking holds about 2,000 compounds; the median of “relative cell viability vs DMSO, compound + 0.2 uM CuET” is about 1, and the lowest 2% start at about 0.25. The list shows a part of the results.

The test system of this test is TE10. Briefly: relative cell viability vs DMSO, compound + 0.2 uM CuET (fraction); TE10 is an esophageal squamous carcinoma line; higher = less cytotoxic. Particulars: 2 µM; co-treatment: CuET (bis(diethyldithiocarbamate)copper) 0.2 uM; 48 h. How it is done: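 TE10 ESCC cells (1,000/well, 384-well plates) were treated with Selleck bioactive library compounds at 2 uM combined with 0.2 uM CuET (copper diethyldithiocarbamate) for 48 h. Viability was read by CellTiter-Glo and expressed relative to DMSO wells. Two technical replicates (A, B).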
In the case of `O=C(Nc1cccc(Cl)c1)Nc1ncc(CCNc2ncnc3ccsc23)s1` [SNS-314 Mesylate], the relative cell viability turned out to be 0.981 ± 0.079.

On to `O=C1c2ccccc2-c2n[nH]c3cccc1c23`, for which the relative cell viability worked out at 1.301 ± 0.0075.

As for `O=C(c1ccc(OCCN2CCCCC2)cc1)c1c(-c2ccc(O)cc2)sc2cc(O)ccc12` [Raloxifene HCl], the relative cell viability is 0.688 ± 0.22. In the case of `CNC(=O)c1ccc(N2C(=S)N(c3cnc(C#N)c(C(F)(F)F)c3)C(=O)C23CCC3)cc1F` it was 1.36 ± 0.22; in that of `CC1(C)CCCC2(C)C1CCC1(C)OC(=O)CC12` (stereo not drawn) [Sclareolide], 1.05 ± 0.085. In the case of `CC(CN1c2ccccc2Sc2ccccc21)N(C)C` (stereo not drawn) [Promethazine HCl] it was 1.09 ± 0.069; in that of `Fc1ccc2[nH]ccc2c1-c1nc(N2CCOCC2)c2sc(CN3CCN(CC4CC4)CC3)cc2n1`, 0.74 ± 0.011. Take `Cc1ccc(NC(=O)Nc2cc(C(F)(F)F)ccc2F)cc1Nc1ccc2c(c1)NC(=O)/C2=C\c1ccc[nH]1`: the relative cell viability worked out at 0.974 ± 0.13.

As for `CNC(=O)c1ccccc1Sc1ccc2c(/C=C/c3ccccn3)n[nH]c2c1` [Axitinib], the relative cell viability turned out to be 0.379 ± 0.21. In the case of `S=C=Nc1cccc(NC(=S)NCCCCNC(=S)Nc2cccc(N=C=S)c2)c1` it was 1.2 ± 0.15; in that of `CCOc1cc(N2CCC(O)CC2)ccc1Nc1ncc2c(n1)N(C)c1ccccc1C(=O)N2C`, 0.854 ± 0.18; in that of `CC(C)C[C@H](NC(=O)CNC(=O)c1cc(Cl)ccc1Cl)B1OC(=O)CC(CC(=O)O)(C(=O)O)O1` (stereo partly drawn), 0.818 ± 0.048. In the case of `CCOC(=O)C1=C(C)NC(C)=C(C(=O)OC)C1c1cccc([N+](=O)[O-])c1` (stereo not drawn) [Nitrendipine] it was 1.11 ± 0.068. On to `COC1(c2sc3c(N4CCOCC4)nc(-c4cnc(N)nc4)nc3c2C)COC1`, for which the relative cell viability was 0.572 ± 0.036. As to `CN(C)CCC(c1ccc(Cl)cc1)c1ccccn1` (stereo not drawn) [Chlorpheniramine Maleate], the relative cell viability came to 1.02 ± 0.07. To `COc1ccccc1N1CCN(CCN2C(=O)CC3(CCCC3)CC2=O)CC1` belongs 0.906 ± 0.22; to `OCC(O)CN1CCN(c2ccccc2)CC1` (stereo not drawn) [Dropropizine], 1.16 ± 0.046; to `O[C@@H](COc1cccc2ncccc12)CN1CCN(C2c3ccccc3[C@@H]3[C@H](c4ccccc42)C3(F)F)CC1` (stereo partly drawn), 1.04 ± 0.13.

Take `NS(=O)(=O)NCCNc1nonc1/C(=N/O)Nc1ccc(F)c(Br)c1`: the relative cell viability came out at 1.2 ± 0.14. For the molecule `COc1ccc(-c2coc3cc(O)cc(O)c3c2=O)cc1` [Biochanin A], the relative cell viability was determined as 1.112 ± 0.011. In the case of `CC(C)(C)c1cc(/C=C(\C#N)C(N)=S)cc(C(C)(C)C)c1O` [Tyrphostin AG 879] it was 0.329 ± 0.31; in that of `COC1=CC(=O)C[C@@H](C)[C@]12Oc1c(Cl)c(OC)cc(OC)c1C2=O` [Griseofulvin], 0.972 ± 0.11; in that of `CCC(=O)NCC[C@@H]1CCc2ccc3c(c21)CCO3` [Ramelteon], 1.22 ± 0.1. `CC[C@H](Nc1ncnc2[nH]cnc12)c1nc2cccc(F)c2c(=O)n1-c1ccccc1` [CAL-101 (Idelalisib, GS-1101)]: the relative cell viability came to 1.19 ± 0.13. To `O=C(NC1CCNCC1)c1n[nH]cc1NC(=O)c1c(Cl)cccc1Cl` belongs 0.848 and 0.838; to `CC(C)c1noc(N2CCC(COc3ccc(-c4ccc(S(C)(=O)=O)cc4)nc3)CC2)n1`, 0.931 ± 0.029.

Consider `O=CN1CC/C(=C/c2ccc3c(c2)OCO3)C1=O`, for which the relative cell viability worked out at 1.141 ± 0.011. In the case of `CC(=O)NC(Cc1ccc(O)cc1)C(=O)NC(CCCN=C(N)N)C(=O)NC(Cc1ccccc1)C(N)=O` (stereo not drawn) it was 0.977 ± 0.19; in that of `CN(C)[C@@H](CCOc1cccc2ccccc12)c1ccccc1` [Dapoxetine HCl], 1.02 ± 0.096. `CCCC(CCC)C(=O)O` [Valproic acid sodium salt (Sodium valproate)]: the relative cell viability was found to be 1.325 ± 0.0097. To `CCCC(CCC)C(=O)O` [Divalproex Sodium] belongs 1.13 ± 0.026; to `CO[C@H]1C[C@@H]2CC[C@@H](C)[C@@](O)(O2)C(=O)C(=O)N2CCCC[C@H]2C(=O)O[C@H]([C@H](C)C[C@@H]2CC[C@@H](OP(C)(C)=O)[C@H](OC)C2)CC(=O)[C@H](C)/C=C(\C)[C@@H](O)[C@@H](OC)C(=O)[C@H](C)C[C@H](C)/C=C/C=C/C=C/1C` [Ridaforolimus (Deforolimus, MK-8669)], 0.944 ± 0.072. In the case of `O=S(=O)(N=Cc1c(O)ccc2ccccc12)c1cccs1` it was 1.24 ± 0.058; in that of `CCS(=O)(=O)N1CCC([C@@H](C)n2c(C)c(C(=O)NCc3c(OC)cc(C)[nH]c3=O)c3ccccc32)CC1`, 1.217 ± 0.0054; in that of `CC[C@@H]1C(=O)N(C)c2cnc(Nc3ccc(C(=O)NC4CCN(C)CC4)cc3OC)nc2N1C1CCCC1`, 0.756 ± 0.045. To `O=C1CCc2c(ccc3ccccc23)O1` [Splitomicin] belongs 1.23 ± 0.028; to `Cc1c(OCC(F)(F)F)ccnc1C[S+]([O-])c1nc2ccccc2[nH]1` (stereo not drawn) [Lansoprazole], 1.05 ± 0.048. Turning to `c1ccc(Cn2c(-c3ccc(OCC(C4CCNCC4)n4c(-c5ccccc5)nc5ccccc54)cc3)nc3ccccc32)cc1` (stereo not drawn) [Deltarasin], the relative cell viability was determined as 0.9797 ± 0.0069. In the case of `Cc1ccc(-n2[nH]c(C)c(N=Nc3cccc(-c4cccc(C(=O)O)c4)c3O)c2=O)cc1C` [Eltrombopag] it was 1.04 ± 0.1. To `Cc1ccc(-n2[nH]c(C)c(N=Nc3cccc(-c4cccc(C(=O)O)c4)c3O)c2=O)cc1C` [Eltrombopag Olamine] belongs 1.145 ± 0.0091; to `NC1=N[C@@]2(c3cc(NC(=O)c4ccc(F)cn4)ccc3F)COC[C@H]2CS1`, 0.948 ± 0.07. In the case of `COc1ccc(COc2cc3oc(=O)c4cc(C(C)O)ccc4c3cc2OC)cc1` (stereo not drawn) [Palomid 529 (P529)] it was 0.99901 ± 0.00082; in that of `COc1ccc2cc1Oc1ccc(cc1)C[C@H]1c3c(cc4c(c3Oc3cc5c(cc3OC)CCN(C)[C@@H]5C2)OCO4)CCN1C` [Cepharanthine], 1.05 ± 0.088.

On to `CCCc1nn(C)c2c(=O)[nH]c(-c3cc(S(=O)(=O)N4CCN(C)CC4)ccc3OCC)nc12` [Sildenafil Citrate], for which the relative cell viability stood at 1.25 ± 0.062. In the case of `CN(C[C@@H]1COCCO1)S(=O)(=O)Nc1ccc2ccc3ncc(-c4cnn(C)c4)cc3c(=O)c2c1` it was 0.8777 ± 0.0078. `N#CC[C@H](C1CCCC1)n1cc(-c2ncnc3[nH]ccc23)cn1`: the relative cell viability is 0.996 and 0.9. To `CCOC(=O)CC(=O)N1CCSC1COc1ccccc1OC` (stereo not drawn) [Moguisteine] belongs 1.08 ± 0.13; to `O=C(CSc1nc2c(c(=O)n1-c1ccccc1)SCC2)Nc1ccc(-c2ccccc2)cn1`, 0.861 ± 0.09; to `O=C(c1ccc(F)c(F)c1Nc1ccc(I)cc1F)N1CC(O)([C@@H]2CCCCN2)C1` [Cobimetinib (GDC-0973, RG7420)], 0.881 ± 0.099.

On to `COc1cc2nc(N3CCCN(C)CC3)nc(NC3CCN(Cc4ccccc4)CC3)c2cc1OC`, for which the relative cell viability stood at 0.967 ± 0.019. To `O=S(=O)(c1cccc2cnccc12)N1CCCNCC1` [Fasudil (HA-1077) HCl] belongs 1.13 ± 0.071; to `CC(C)c1cnn2c(NCc3ccccc3)cc(NCCCCCCN)nc12`, 0.924 ± 0.018. In the case of `CCC(C)C1OC2(CCC1C)CC1CC(CC=C(C)C(OC3CC(OC)C(OC4CC(OC)C(O)C(C)O4)C(C)O3)C(C)C=CC=C3COC4C(O)C(C)=CC(C(=O)O1)C34O)O2` (stereo not drawn) [Ivermectin] it was 1.05 ± 0.11; in that of `CC(NCCc1ccc(O)cc1)C(O)c1ccc(O)cc1` (stereo not drawn) [Ritodrine HCl], 1.19 ± 0.018. To `C[C@H](Nc1ncnc2nc[nH]c12)c1cc2cccc(Cl)c2c(=O)n1-c1ccccc1` belongs 1.16 ± 0.044. On to `CC(C)(O)CC(=O)NCCn1ccc2ncnc(Nc3ccc(Oc4cccc(C(F)(F)F)c4)c(Cl)c3)c21`, for which the relative cell viability came out at 0.956 ± 0.033. In the case of `Cc1c(C(=O)N2CCOc3ccc(-c4ccc(N)nc4)cc3C2)ccc(S(C)(=O)=O)c1F` it was 1.08 ± 0.074; in that of `CCC(=O)O[C@]1(C(=O)SCF)[C@H](C)C[C@H]2[C@@H]3C[C@H](F)C4=CC(=O)C=C[C@]4(C)[C@@]3(F)[C@@H](O)C[C@@]21C` [Fluticasone propionate], 1.02 ± 0.043; in that of `Nc1ccc(/N=N/c2ccccc2)c(N)n1` [Phenazopyridine HCl], 1.32 ± 0.06.

With `CC(C)[C@H](O)C(=O)N[C@@H](C)C(=O)N[C@@H]1C(=O)N(C)CCc2ccccc21`, the relative cell viability was 1 ± 0.012. To `Cc1[nH]nc2ccc(-c3cncc(OC[C@@H](N)Cc4ccccc4)c3)cc12` belongs 0.577 ± 0.044; to `Nc1ccc(C(=O)O)c(O)c1` [Sodium 4-Aminosalicylate], 0.901 ± 0.1. In the case of `COc1cc(CCc2cc(NC(=O)c3ccc(N4CC(C)NC(C)C4)cc3)n[nH]2)cc(OC)c1` (stereo not drawn) it was 1.16 ± 0.2. To `CCCCN1CCCC[C@H]1C(=O)Nc1c(C)cccc1C` [Levobupivacaine HCl] belongs 1.01 ± 0.037; to `CNCc1ccc(C)c(NC(=O)c2ccc(Nc3nc(-c4ccccc4)c4ccccc4n3)cc2)c1`, 0.862 ± 0.065; to `CCCc1cc2c(N3CCN(C4=NCC(C)(C)S4)CC3)ncnc2s1` [MI-2 (Menin-MLL Inhibitor)], 0.952 ± 0.058. Take `Clc1ccc(C(c2ccccc2Cl)C(Cl)Cl)cc1` (stereo not drawn) [Mitotane]: the relative cell viability was 0.983 ± 0.06. With `O=C1O[C@H]([C@@H](O)CO)C(O)=C1O` [Vitamin C], the relative cell viability is 1.07 ± 0.04.

For the molecule `Cc1cccc(C)c1OCC(=O)N[C@@H](Cc1ccccc1)[C@@H](O)C[C@H](Cc1ccccc1)NC(=O)[C@H](C(C)C)N1CCCNC1=O` [Lopinavir], the relative cell viability is 1.06 ± 0.015. In the case of `O=C(O)Cn1nnc(-c2cc(N3CCC(Oc4cc(F)ccc4Br)CC3)no2)n1` it was 1.28 ± 0.22; in that of `O=C(O)c1ccccc1Nc1cccc(C(F)(F)F)c1` [Flufenamic acid], 1.12 ± 0.046; in that of `Nc1cc(C(F)(F)F)c(-c2cc(N3CCOCC3)nc(N3CCOCC3)n2)cn1` [BKM120 (NVP-BKM120, Buparlisib)], 0.777 ± 0.066.

For the molecule `Cc1c(C(=O)Nc2ccc(N3C[C@@H](C)O[C@@H](C)C3)nc2)cccc1-c1ccc(OC(F)(F)F)cc1` [LDE225 (NVP-LDE225,Erismodegib)], the relative cell viability was 0.714 ± 0.081. In the case of `Cc1ccc(Sc2cncc3sc(C(N)=O)cc23)cc1` it was 1.06 ± 0.085; in that of `Cc1cnc(NC(=O)Nc2cc(Br)c(C)cc2OC[C@@H]2CNCCO2)cn1`, 0.643 ± 0.043.

`COc1cccc(-c2cc(F)ccc2C2Cc3nc(N)nc(C)c3C(=O)N2)n1` (stereo not drawn): the relative cell viability was determined as 0.704 ± 0.034. In the case of `O=c1cc(N2CCOCC2)oc2c(-c3ccccc3)cccc12` it was 1.073 ± 0.0058; in that of `CCCCC(=O)N(Cc1ccc(-c2ccccc2-c2nnn[nH]2)cc1)[C@H](C(=O)O)C(C)C` [Valsartan], 1.08 ± 0.029.
